Measurements from PubChem BioAssay AID1345082 (National Center for Advancing Translational Sciences (NCATS), 2018).
Hit rate of the full screen: of about 94,000 compounds, about 4,000 (4.3%) were called active. Inconclusive means that the source gave no clear call. Such entries were picked first, then a sample of the others. Calls follow the shape of the dose curve; as a rule, active = well fitted inhibition curve with a large enough effect; inconclusive = small, poorly fitted or top-dose-only effect; inactive = no such curve, though single readings can be large or run the other way. Potencies beside an inconclusive call are fits to weak or partial responses and may not hold up.

Assay: Cytotoxic Profiling in NIH 3T3 Cell Line of Diverse Libraries Using Quantitative High-Throughput Screening; also: nearly all actives have a fitted effect of over 55% in size
Conditions: NIH 3T3 viability, CellTiter-Glo ATP luminescence, 48-72 h; series mostly up to 96.7 µM
Procedure, shortened: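 ATP-dependent luminescence (CellTiter-Glo) served as the viability signal for NIH 3T3 cells treated with compound for 48 or 72 hr at 37 °C.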
Potency is read from the fitted curve at half-maximal effect; tags tell the direction and shape of the fitted curve.

| Compound | Potency |
| --- | --- |
| COC(=O)N1CCn2cc(C(=O)NCc3ccc(Cl)nc3)nc2C1 | inconclusive: 79.4 µM [inhibitor, partial curve, poor fit] |
| O=C(NCc1ccccc1)c1ccnc(-c2nnc3ccc(N4CCOCC4)nn23)c1 | inconclusive: 56.2 µM [inhibitor, partial curve, poor fit] |
| CO[C@H]1C(=O)N(C(C)C)[C@H]1C1CCN(C(=O)c2ccc3ncccc3c2)CC1 | inactive |
| COc1cccc(-c2c(C(=O)NCc3cccc(C(F)(F)F)c3)nc3sccn23)c1 | inconclusive: 35.5 µM [inhibitor, partial curve, poor fit] |
| COCCn1ccc2c(C3=CCOCC3)nc(-c3cccc4[nH]ccc34)cc21 | active: 50.1 µM |
| COc1ccc(-c2cn3cc(C(=O)NCC(C)C)nc3s2)cc1 | inconclusive: 17.8 µM [inhibitor, full curve, poor fit] |
| CCOCCNC(=O)C1CCCN(Cc2cccc(-c3ccc(F)cc3F)c2)C1 (stereo not drawn) | inconclusive: 50.1 µM [inhibitor, partial curve, poor fit] |
| CNC(=O)CCn1ncc2cc(OCc3ccccc3-c3c(C)noc3C)ccc21 | inconclusive: 100 µM [inhibitor, partial curve, poor fit] |
| O=C(NCc1cccc(C(F)(F)F)c1)C1CN(C2CCCCC2)C(=O)N1 (stereo not drawn) | inconclusive: 50.1 µM [inhibitor, partial curve, poor fit] |
| CNC(=O)[C@H]1CN(C(=O)NC2CCCC2)[C@]2(C)C(=O)N(CC3CC3)c3ccccc3[C@H]12 | inactive |
| COCCN1C(=O)CS(=O)(=O)C12CCN(C(=O)COc1ccccc1)CC2 | inactive |
| CC(C)Cc1cc(C[C@@H]2C[C@H](NC3CCOCC3)C2(C)C)no1 | inactive |
| Cc1cccc(CC(=O)N2CCC3(CC2)CC(O)CCO3)c1 (stereo not drawn) | inactive |
| Cc1nn2c(c1-c1ccnn1C(C)C)N(Cc1ccc(O)cc1)CCC2 | inconclusive: 56.2 µM [inhibitor, partial curve, poor fit] |
| O=C1N(C2CCCCC2)C[C@H]2CN(S(=O)(=O)c3ccccc3)CCN12 | inconclusive: 100 µM [inhibitor, partial curve] |
| O=C(c1ccc2cc[nH]c2c1)N1CCCN(c2cc(-c3ccc(F)cc3)[nH]n2)CC1 | inconclusive: 50.1 µM [inhibitor, partial curve, poor fit] |
| O=c1cc(-c2cccnc2)oc2c(-c3cccc(F)c3)nccc12 | inconclusive: 8.91 µM [inhibitor, full curve, poor fit] |
| O=C(Nc1cccc(-c2nnc3n2CCCC3)c1)Nc1ccccc1F | inactive |
